Test results from PubChem BioAssay AID485294 (National Center for Advancing Translational Sciences (NCATS), 2010).
Among all 370,000 compounds or so, about 150 (0.041%) were called active. Inconclusive results, whose numbers are uncertain, are shown with a selection of clear calls. Calls follow the shape of the dose curve; as a rule, active = well fitted inhibition curve with a large enough effect; inconclusive = small, poorly fitted or top-dose-only effect; inactive = flat fitted curve, though single readings scatter. Potencies of inconclusive entries are left out as doubtful fits.
Also: nearly all actives have a fitted effect of over 25% in size.
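For activity change, negative = inhibition in this document: 0% = no-compound wells and -100% = no-enzyme wells.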
Potency is read from the fitted curve at half-maximal effect; tags tell the direction and shape of the fitted curve.

The molecules below were run against Beta-lactamase (Escherichia coli (strain K12)) (UniProt P00811) (assay: qHTS Inhibitors of AmpC Beta-Lactamase (assay with detergent)). Conditions: AmpC hydrolysis of nitrocefin, absorbance 480 nm, 0.01% Triton; activity change, negative = inhibition: at 114 µM (top of the series).
Chain of UniProt P00811 (P00811 whole entry, looked up): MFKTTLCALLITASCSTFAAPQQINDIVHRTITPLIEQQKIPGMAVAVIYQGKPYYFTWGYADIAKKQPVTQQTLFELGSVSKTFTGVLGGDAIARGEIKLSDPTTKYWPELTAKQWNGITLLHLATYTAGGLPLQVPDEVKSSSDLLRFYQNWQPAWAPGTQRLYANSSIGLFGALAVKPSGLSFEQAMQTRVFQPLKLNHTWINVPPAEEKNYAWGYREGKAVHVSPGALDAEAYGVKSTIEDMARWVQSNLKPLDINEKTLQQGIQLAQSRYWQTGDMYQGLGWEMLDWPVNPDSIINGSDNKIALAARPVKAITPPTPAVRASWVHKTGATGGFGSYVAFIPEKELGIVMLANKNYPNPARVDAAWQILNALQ
Outline: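 AmpC (5.3 nM in the dispensed reagent) in 20 mM phosphate pH 7.0 with 0.01% (detergent screen) or 0.0001% Triton X-100 was preincubated with compounds for 15 min at room temperature. Nitrocefin was then added from an 800 uM solution, and hydrolysis was followed at 480 nm.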
O=C(COC(=O)/C=C/c1ccc(F)cc1)Nc1ccc2[nH]c(=O)[nH]c2c1 was tested, and the Potency was inconclusive [inhibitor, partial curve, poor fit]. In the case of COc1cc(NC(=S)N2CCc3ccccc3C2)cc(OC)c1, the Potency was inconclusive [inhibitor, partial curve]. Cc1ccc(C)c(NC(=S)NCC(c2ccccc2)N(C)C)c1 (stereo unspecified) was tested, and the Potency was inconclusive [inhibitor, full curve, poor fit]. In the case of CC(C)Cn1c2ccccc2c2cc(C(=O)O)ccc21, the Potency was inconclusive [inhibitor, single point]. For Cc1cccc(C(=O)N2CCC(N3CCC(C(=O)N4CCOCC4)CC3)CC2)c1, the Potency was inconclusive [inhibitor, full curve, poor fit]. With COc1cc(OC)cc(C(=O)NC(=S)Nc2cccnc2)c1 the “activity change, negative = inhibition” value was inactive: -5.71%. With COc1ccc(OC)c(-n2nnnc2SCC(=O)Nc2ccc3c(c2)OCCO3)c1 the Potency was inconclusive [inhibitor, full curve]. With CCOC(=O)NC(NC(=S)Nc1ccccc1[N+](=O)[O-])C(Cl)(Cl)Cl (stereo unspecified) the Potency was inconclusive [inhibitor, full curve, poor fit]. In the case of CCOC(=O)C1=C(N)OC2=C(C(=O)CC(C)(C)C2)C1c1ccc(CC)s1 (stereo unspecified), the Potency was inconclusive [inhibitor, single point]. For CCOC(=O)c1sc(NC(=O)c2cc(-c3ccc(C)cc3)nc3ccccc23)c(C#N)c1C, the “activity change, negative = inhibition” value was inactive: -0.27%. With CC(C)CCN1CC(=O)N2Cc3[nH]c4ccccc4c3C[C@H]2C1=O the Potency was inconclusive [inhibitor, full curve, poor fit]. COc1ccc(C)cc1S(=O)(=O)n1cnc(C)c1 was tested, and the Potency was inconclusive [inhibitor, full curve, poor fit]. In the case of Cc1c(C(=O)N2CCN(c3ncccn3)CC2)oc2c(Cl)cccc12, the Potency was inconclusive [inhibitor, full curve, poor fit]. With COc1ccc2nc(NCCCNC(=O)c3cc(OC)c(OC)c(OC)c3)c(C#N)cc2c1 the Potency was inconclusive [inhibitor, full curve, poor fit]. For O=[N+]([O-])/C(=C\Nc1ccccc1)S(=O)(=O)c1ccccc1, the Potency was inconclusive [inhibitor, partial curve]. In the case of Cc1ccc(Cn2ncc3c(N4CCN(c5ccccc5C)CC4)ncnc32)cc1, the Potency was inconclusive [inhibitor, partial curve]. In the case of O=C(NCC1COc2ccccc2O1)c1ccccc1 (stereo unspecified), the Potency was inconclusive [inhibitor, full curve, poor fit]. For CCCCN(CC)CCCNC(=O)c1nn(-c2ccc(OC)cc2)c(=O)c2c1c1ccccc1n2C, the “activity change, negative = inhibition” value was inactive: -3.06%. With CCN(Cc1cnn(C)c1)C(=O)c1cc(COc2ccc3c(c2)CCCC3)on1 the “activity change, negative = inhibition” value was inactive: 8.25%. In the case of Cc1nc(SCC(=O)NC(=O)NCc2ccco2)nc(C)c1C, the Potency was inconclusive [inhibitor, full curve, poor fit]. For CC1CCc2nc3ncn(Cc4cccc(F)c4)c(=O)c3cc2C1 (stereo unspecified), the “activity change, negative = inhibition” value was inactive: 1.88%. For COC(=O)Nc1ccc(S(=O)(=O)N2CCN(C)CC2)cc1, the Potency was inconclusive [inhibitor, single point]. With Cc1nn(Cc2ccccc2)c(C)c1/C=N/NC(=O)c1ccccc1O the “activity change, negative = inhibition” value was inactive: 2.14%. For Cc1ccc(OCCSc2nc3ccccc3n2CCC(=O)O)cc1, the Potency was inconclusive [inhibitor, full curve]. CN(Cc1ccccc1)c1nc2c(S(=O)(=O)c3ccccc3)nnn2c2ccsc12 was tested, and the “activity change, negative = inhibition” value was inactive: 16.5%. With Cc1ccc(OCC(=O)Nc2ccc(-n3cnnn3)cc2)c(C)c1 the Potency was inconclusive [inhibitor, full curve, poor fit]. Cc1ccc(C(=O)COC(=O)c2ccc3c(c2)C(=O)N(c2cccc4ncccc24)C3=O)cc1 was tested, and the Potency was inconclusive [inhibitor, full curve, poor fit]. In the case of COC(=O)c1c(C)oc(C)c1S(=O)(=O)NC(c1ccccc1)c1ccccc1, the “activity change, negative = inhibition” value was inactive: 4.58%. In the case of C/C(=N\Nc1cccc2cccnc12)c1ccc[nH]1, the Potency was inconclusive [inhibitor, partial curve, poor fit]. For CS(=O)(=O)N(CC(=O)NCc1ccccn1)Cc1ccc(Cl)cc1, the Potency was inconclusive [inhibitor, single point]. For Cc1cccc(N(CC(=O)N2CCCC2)S(=O)(=O)c2ccccc2)c1, the Potency was inconclusive [inhibitor, full curve, poor fit]. With Cc1nn(C(=O)c2ccco2)c(C)c1Sc1ccc(Cl)cc1 the Potency was inconclusive [inhibitor, full curve, poor fit]. In the case of COc1ccc(OC)c(NC(=O)N2CCC3(CC2)Oc2ccccc2C(=O)N3Cc2ccccc2F)c1, the “activity change, negative = inhibition” value was inactive: 23.2%. In the case of N#Cc1nc(-c2ccco2)oc1NCc1ccc(F)cc1, the Potency was inconclusive [inhibitor, single point]. In the case of CCCCN(C)C(=O)c1ccc2c(c1)NC(=O)C(CC(C)C)N2 (stereo unspecified), the “activity change, negative = inhibition” value was inactive: -0.473%. COc1ccc(-c2nc(-c3ccccc3)no2)c(OC)c1 was tested, and the Potency was inconclusive [inhibitor, partial curve, poor fit]. With NCC(=O)CCC(=O)O the Potency was inconclusive [inhibitor, full curve]. With COc1ccccc1C(=O)N1CCC(N2CCN(c3ccccc3OC)CC2)CC1 the Potency was inconclusive [inhibitor, single point]. In the case of O=C(Nc1ccc(Br)cc1)c1cc(S(=O)(=O)N2CCc3ccccc32)ccc1F, the “activity change, negative = inhibition” value was inactive: 9.38%. With CC1CCN(C(=O)CSc2nnc(CSc3ncccn3)n2C)CC1 the Potency was inconclusive [inhibitor, full curve, poor fit]. With O=S(=O)(Nc1ccc(C(F)(F)F)cn1)c1ccccc1 the Potency was inconclusive [inhibitor, full curve]. With Cc1ccc(C(=O)NCC(=O)OCc2nnc(-c3ccc([N+](=O)[O-])cc3)o2)s1 the Potency was inconclusive [inhibitor, full curve, poor fit]. With CCOc1ccc2nc(SCC(=O)NCc3ccccc3OC)[nH]c2c1 the Potency was inconclusive [inhibitor, full curve]. Cc1cccc(NS(=O)(=O)c2ccc(C)c(C(=O)OCC(=O)Nc3cc(C)on3)c2)c1 was tested, and the Potency was inconclusive [inhibitor, full curve, poor fit]. With COc1ccc(-n2c(C)cc(C(=O)COC(=O)c3ccc(O)cc3O)c2C)cc1 the “activity change, negative = inhibition” value was inactive: -14.6%. In the case of CCN(C(=O)COc1ncnc2ccc(Br)cc12)C1CCS(=O)(=O)C1 (stereo unspecified), the Potency was inconclusive [inhibitor, partial curve, poor fit]. In the case of CCC1Oc2ccccc2N(CC(=O)NCc2ccccc2)C1=O (stereo unspecified), the “activity change, negative = inhibition” value was inactive: 8.44%. For CC(C(=O)Nc1cccc(Br)c1)c1ccc([N+](=O)[O-])cc1 (stereo unspecified), the Potency was inconclusive [inhibitor, partial curve, poor fit]. For CCC1CCCN1Cn1cnc2c([nH]c3ccc(C)cc32)c1=O (stereo unspecified), the Potency was inconclusive [inhibitor, full curve]. For C=CCOc1c(CNc2nccs2)cccc1OCC, the Potency was inconclusive [inhibitor, full curve]. In the case of CC[n+]1c(P(=O)([O-])c2ccccc2)[nH]c2ccccc21, the Potency was inconclusive [inhibitor, full curve]. For CC1=C(C(=O)Nc2ccccc2)C(c2ccncc2)C(C#N)=C(SCC(=O)NC2CC2)N1 (stereo unspecified), the Potency was inconclusive [inhibitor, full curve, poor fit]. For CN1CCN(C(=O)c2ccc(S(=O)(=O)c3ccc(Br)cc3)cc2)CC1, the Potency was inconclusive [inhibitor, full curve, poor fit]. For O=C(Nc1ccccc1)c1ccc(Cl)c(S(=O)(=O)Nc2ccccc2)c1, the “activity change, negative = inhibition” value was inactive: -0.0339%. NC(=O)CC(NC(=O)Cc1cccc2ccccc12)c1ccc(NCCc2ccccc2F)c([N+](=O)[O-])c1 (stereo unspecified) was tested, and the “activity change, negative = inhibition” value was inactive: 3.97%. With Cc1cccc(NCCC(=O)c2ccc([N+](=O)[O-])cc2)c1C the “activity change, negative = inhibition” value was inactive: 8.92%. In the case of C/C(=N\NC(=O)c1cccc(S(=O)(=O)N2CCOCC2)c1)c1ccc(OC(F)F)cc1, the Potency was inconclusive [inhibitor, full curve, poor fit]. Cc1nn(CC(O)CN2c3ccccc3Sc3ccccc32)c(C)c1Br (stereo unspecified) was tested, and the Potency was inconclusive [inhibitor, single point]. In the case of O=C(CN(Cc1ccco1)C(=O)c1cccc(Cl)c1)Nc1c(Cl)cc(Cl)cc1Cl, the Potency was inconclusive [inhibitor, partial curve, poor fit]. In the case of CCN1CCN(C(=O)c2cc(-c3ccco3)nc3ccccc23)CC1, the “activity change, negative = inhibition” value was inactive: 4.69%. With Cc1cc(-n2c(C)cc(C(=O)CSc3nnnn3-c3ccc(Cl)cc3)c2C)no1 the Potency was inconclusive [inhibitor, single point]. In the case of O=C(Cc1cccs1)Nc1ccc(F)c(F)c1, the Potency was inconclusive [inhibitor, partial curve, poor fit]. In the case of CCCCS/C(=C(/C#N)C(N)=O)c1cc2c([nH]1)CCCC2, the “activity change, negative = inhibition” value was inactive: 6.03%. With CCCCN(CC)CCNC(=O)CN1C(=O)COc2ccc(S(=O)(=O)N3CCOCC3)cc21 the “activity change, negative = inhibition” value was inactive: -6.44%. In the case of COc1cc(S(=O)(=O)NC(C)C)ccc1Cl, the Potency was inconclusive [inhibitor, partial curve, poor fit]. With CCN(CC)Cc1c(C(=O)OC(C)C)nnn1-c1nonc1N the Potency was inconclusive [inhibitor, full curve, poor fit].
